About 5,800 (2.1%) of roughly 270,000 compounds were called active. This list was built around the results that the source calls inconclusive (neither active nor inactive); the mix of calls is not that of the screen. Calls come from the whole dose curve; as a rule, active = well fitted inhibition curve with a large enough effect; inconclusive = small, poorly fitted or top-dose-only effect; inactive = flat fitted curve, though single readings scatter. A potency beside an inconclusive call is a rough fit, not a confirmed value.
target: Microtubule-associated protein tau (Homo sapiens) (UniProt P10636); assay: qHTS for Inhibitors of Tau Fibril Formation, Thioflavin T Binding; settings: recombinant tau K18 P301L, heparin-induced fibrillization, ThT fluorescence; series mostly up to 57.4 µM; activity, negative = inhibition: at the top concentration; note: nearly all actives have a fitted effect of over 55% in size
In short: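 Using a mix of unlabeled (15 uM) and Alexa 594-labeled (0.24 uM) tau K18 P301L, heparin-triggered fibrillization over 6 hr at 37 C was scored by ThT fluorescence.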
% is set by controls: 0 for no effect and ±100 for the full control effect; potency is the fitted concentration of half-maximal effect; tags give direction and shape of the fitted curve.

UniProt P10636, sequence (P10636 whole entry, looked up): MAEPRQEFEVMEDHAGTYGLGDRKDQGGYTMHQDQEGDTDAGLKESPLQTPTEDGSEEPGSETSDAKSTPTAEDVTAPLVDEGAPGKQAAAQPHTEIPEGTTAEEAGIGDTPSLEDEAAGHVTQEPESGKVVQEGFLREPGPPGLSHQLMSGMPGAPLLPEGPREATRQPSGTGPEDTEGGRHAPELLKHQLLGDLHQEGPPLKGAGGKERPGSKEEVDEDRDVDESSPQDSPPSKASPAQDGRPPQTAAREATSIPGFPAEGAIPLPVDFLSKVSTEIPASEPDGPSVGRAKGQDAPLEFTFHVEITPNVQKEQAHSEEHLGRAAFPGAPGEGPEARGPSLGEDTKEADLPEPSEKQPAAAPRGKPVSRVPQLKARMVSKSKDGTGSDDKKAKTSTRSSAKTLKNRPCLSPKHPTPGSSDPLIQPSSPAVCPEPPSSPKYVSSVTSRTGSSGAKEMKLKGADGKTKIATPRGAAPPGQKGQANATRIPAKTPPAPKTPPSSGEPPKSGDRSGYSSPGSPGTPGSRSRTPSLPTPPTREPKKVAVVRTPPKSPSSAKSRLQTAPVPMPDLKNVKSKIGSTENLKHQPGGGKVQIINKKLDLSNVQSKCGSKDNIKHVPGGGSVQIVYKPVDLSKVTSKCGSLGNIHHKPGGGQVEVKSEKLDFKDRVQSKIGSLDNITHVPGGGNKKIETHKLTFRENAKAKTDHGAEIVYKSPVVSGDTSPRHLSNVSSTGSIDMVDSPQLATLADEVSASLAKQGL

Row | Compound | Potency | activity, negative = inhibition
1 | CCOC(=O)C1=NN(N=O)C2(CC(=O)N(c3cc(C)cc(C)c3)C2=O)C1 (stereo unspecified) | inconclusive: 28.2 µM [inhibitor, single point] | 
2 | Cc1ccc(C)c(N2CCN(C(=O)CSCc3ccccc3Cl)CC2)c1 | inconclusive: 11.2 µM [inhibitor, partial curve] | 
3 | COc1cccc(NC(=O)CC2Nc3cc(C)c(C)cc3NC2=O)c1 (stereo unspecified) | inconclusive: 4.47 µM [inhibitor, partial curve] | 
4 | Cc1cccc(C(=O)N/N=C/c2ccc[nH]2)c1 | inconclusive: 39.8 µM [inhibitor, single point] | 
5 | COc1ccc(OC)c(S(=O)(=O)Nc2cccc(-c3ccc(N4CCCCC4)nn3)c2)c1 | inconclusive: 28.2 µM [inhibitor, single point] | 
6 | Cc1cc(-c2sccc2Br)nc(-n2cccc2)n1 | inconclusive: 31.6 µM [inhibitor, single point] | 
7 | c1ccc(CCNc2c3c(nc4ncnn24)CCC3)cc1 |  | inactive: -15%
8 | COc1ccc(N2CC(NC(=O)c3ccc(S(=O)(=O)N4CCCCC4)cc3)CC2=O)cc1 (stereo unspecified) |  | inactive: -3.73%
9 | CCOc1cc(/C=C\[N+](=O)[O-])ccc1OCC(=O)Nc1ccccc1C |  | inactive: -4.66%
10 | CCc1cccc(NC(=O)C(Cc2ccccc2)n2cccc2)c1 (stereo unspecified) |  | inactive: -5.67%
11 | CCN(CC)C(=O)CSc1nc(-c2ccc(C)cc2)nc2c1Cc1c(CO)cnc(C)c1O2 | inconclusive: 25.1 µM [inhibitor, partial curve] | 
12 | COc1ccc2c(c1)NC(C)(C)C=C2C | inconclusive: 12.6 µM [inhibitor, partial curve] | 
13 | O=C(CCc1ccc(O)c(O)c1)NNC(=S)NCCc1ccccc1 | inconclusive: 20 µM [inhibitor, single point] | 
14 | Cc1ccc(CNC(=O)c2ccc3nc(SCc4ccc(F)cc4)[nH]c3c2)cc1 |  | inactive: 2.98%
15 | CC1=C(c2ccc(C(C)C)cc2)S(=O)(=O)N=C1N1CCC(C(=O)NCCc2ccco2)CC1 | inconclusive: 2.51 µM [inhibitor, partial curve, poor fit] | 
16 | Cc1ccc(CO)cc1Nc1ncnc2onc(-c3ccc(F)cc3)c12 |  | inactive: -5.02%
17 | COc1ccc(C(=O)Nc2cc(C(=O)c3ccccc3)c(C)oc2=O)cc1 | inconclusive: 12.6 µM [inhibitor, partial curve] | 
18 | CC(C)C(NC(=O)c1ccccc1F)C(=O)Nc1ccc2c(c1)OCO2 (stereo unspecified) | inconclusive: 39.8 µM [inhibitor, single point] | 
19 | COc1ccc(S(=O)(=O)C(C#N)c2nc3ccccc3nc2N2CCCC(C)C2)cc1 (stereo unspecified) | inconclusive: 25.1 µM [inhibitor, partial curve] | 
20 | Cc1cc(-c2csc(NCc3ccccc3)n2)c(C)n1C | inconclusive: 15.8 µM [inhibitor, partial curve] | 
21 | CC(C)CN(CC(C)C)c1ccc(/C=N/n2cnnc2)cc1[N+](=O)[O-] | inconclusive: 31.6 µM [inhibitor, single point] | 
22 | CCCCC(C(=O)NC1CCCC1)N(Cc1ccco1)C(=O)Cn1nnc(-c2ccc(F)cc2)n1 (stereo unspecified) |  | inactive: -9.85%

Row | Compound | Potency | activity, negative = inhibition
23 | CC(=O)Nc1ccccc1-c1nc2ccccc2n(CC(=O)Nc2cccc(C(F)(F)F)c2)c1=O | inconclusive: 7.08 µM [inhibitor, single point] | 
24 | COc1ccc(-n2nc3cc(C)c(NC(C)=O)cc3n2)cc1 | inconclusive: 28.2 µM [inhibitor, single point] | 
25 | COc1ccc(C2c3cc(OC)c(OC)cc3CC(=O)N2c2ccc(C)c(F)c2)cc1 (stereo unspecified) | inconclusive: 35.5 µM [inhibitor, single point] | 
26 | COc1ccc(Br)cc1-c1nc(CCl)cs1 | inconclusive: 11.2 µM [inhibitor, partial curve] | 
27 | COCCNCCOc1ccc(C)cc1[N+](=O)[O-] | inconclusive: 39.8 µM [inhibitor, single point] | 
28 | CCOC(=O)C(=Cc1ccc(-c2ccsc2C(=O)OC)o1)C(=O)OCC | inconclusive: 17.8 µM [inhibitor, single point] | 
29 | CCOc1ccc(C(=O)Nc2cc(C)c3c(=O)oc4ccccc4c3n2)cc1 | inconclusive: 11.2 µM [inhibitor, partial curve] | 
30 | O=C(Nc1ccc(Br)cn1)c1ccc([N+](=O)[O-])cc1Cl | inconclusive: 15.8 µM [inhibitor, partial curve] | 
31 | O=C(CSc1nnc(Nc2ccccc2F)s1)c1cc2ccccc2o1 | inconclusive: 10 µM [inhibitor, partial curve] | 
32 | N#C/C(=C\Nc1ccc2c(c1)OCCO2)c1nc2ccccc2[nH]1 | inconclusive: 2.82 µM [inhibitor, full curve] | 
33 | CN(C)c1ccc(C(=O)Nc2nnc(-c3ccc(Cl)cc3)o2)cc1 | inconclusive: 1.26 µM [inhibitor, full curve] | 
34 | CN(C)CC(=O)Nc1nc(-c2ccccc2)cs1 |  | inactive: -8.83%
35 | Cc1c(O)c(CN(C)C)cc2c1oc(=O)c1ccccc12 | inconclusive: 15.8 µM [inhibitor, partial curve, poor fit] | 
36 | Nc1nc2ccc(-c3nc4ccccc4o3)cc2s1 | inconclusive: 39.8 µM [activator, single point] | 
37 | COc1ccccc1-c1ccc(NC2CCCC2)nn1 |  | inactive: -8.07%
38 | O=c1nc2c(O)cccn2c2c1c(=O)[nH]c1ccccc12 | inconclusive: 14.1 µM [inhibitor, partial curve] | 
39 | NC(=O)CC(NC(=O)Cc1cccc2ccccc12)c1ccc(NCCOc2ccccc2)c([N+](=O)[O-])c1 (stereo unspecified) | inconclusive: 5.01 µM [inhibitor, partial curve] | 
40 | O=C(CN1CCN(S(=O)(=O)c2ccccc2F)CC1)NC1CCCC1 |  | inactive: -4.78%
41 | COc1ccc(/C=C/C(=O)Nc2ccc3nc(N4CCC(C)CC4)cc(C)c3c2)cc1 | inconclusive: 2 µM [inhibitor, full curve] | 
42 | COc1ccc(-c2nc(C#N)c(N3CCCCCC3)o2)cc1OC | inconclusive: 35.5 µM [inhibitor, partial curve] | 
43 | Cc1cccc(NC(c2ccccc2F)c2ccc3ccc(C)nc3c2O)n1 (stereo unspecified) | inconclusive: 28.2 µM [inhibitor, single point] | 
44 | COc1ccc2c(C)cc3n[nH]c(=S)n3c2c1 | inconclusive: 8.91 µM [inhibitor, partial curve] | 

Row | Compound | Potency | activity, negative = inhibition
45 | COc1ccc(C(=O)NCC(c2ccc(N(C)C)cc2)N2CCc3ccccc32)cc1OC (stereo unspecified) | inconclusive: 15.8 µM [inhibitor, partial curve] | 
46 | N[C@@H](C(=O)N[C@@H]1C(=O)N2C(C(=O)O)=C(Cl)CS[C@H]12)c1ccccc1 | active: 28.2 µM | 
47 | COc1ccc(NCc2nnc(SCC(=O)Nc3nc(-c4ccccc4)cs3)n2-c2ccccc2)cc1 |  | inactive: 5.95%
48 | C=CCc1ccccc1OCCSc1nc2ccc([N+](=O)[O-])cc2s1 | inconclusive: 20 µM [inhibitor, partial curve] | 
49 | C=C(C)COc1ccc2c(CC)cc(=O)oc2c1C | inconclusive: 8.91 µM [inhibitor, partial curve] | 
50 | O=C(NCCCN1CCCCCC1)c1ccc2c(c1)NC(=O)C(N1CCOCC1)S2 (stereo unspecified) | inconclusive: 44.7 µM [inhibitor, single point] | 
51 | Cc1ccccc1/C=N\NC(=O)c1csnn1 | inconclusive: 7.94 µM [inhibitor, partial curve, poor fit] | 
52 | CCc1cccc(C)c1NC(=O)CSc1nnc(CCCOc2ccc(Cl)cc2Cl)n1C | inconclusive: 22.4 µM [inhibitor, partial curve] | 
53 | CN(C)S(=O)(=O)c1cc(NC(=O)CSc2ncc(C(F)(F)F)cc2Cl)ccc1Cl |  | inactive: 1.35%
54 | Cc1ccc(/C=N\Nc2nc3ccc(Cl)cc3[nH]2)o1 | inconclusive: 5.62 µM [inhibitor, partial curve] | 
55 | CO/N=C(\C(=O)NC1C(=O)N2C(C(=O)OCOC(=O)C(C)(C)C)=C(/C=C\c3scnc3C)CSC12)c1csc(N)n1 (stereo unspecified) | inconclusive: 22.4 µM [inhibitor, single point] | 
56 | O=C(Nc1ccc([N+](=O)[O-])cc1)c1cncc(Br)c1 | inconclusive: 2.82 µM [inhibitor, partial curve] | 
57 | Cc1ccc(C(=O)c2oc3ccccc3c2NC(=O)c2cc(-c3ccccc3O)n[nH]2)cc1 | inconclusive: 12.6 µM [inhibitor, partial curve] | 
58 | COCCNC(=O)/C(C#N)=C/C=C/c1ccccc1[N+](=O)[O-] | inconclusive: 14.1 µM [inhibitor, partial curve] | 
59 | C/C(=N\NC(=O)c1ccc([N+](=O)[O-])cc1Cl)c1ccccc1 | inconclusive: 31.6 µM [inhibitor, single point] | 
60 | O=C(Nc1nnc(S(=O)(=O)N2CCCCC2)s1)c1ccccc1Br | inconclusive: 15.8 µM [inhibitor, partial curve] | 
61 | COc1cc(SC)ccc1C(=O)NCCOc1ccc(F)cc1 | inconclusive: 20 µM [inhibitor, single point] | 
62 | Cc1nc2sc(-c3ccccc3)cc2c(=O)n1/N=C/N(C)C | inconclusive: 44.7 µM [inhibitor, single point] | 
63 | CCCCOC(=O)C1CCCC(C(=O)OCCCC)N1 (stereo unspecified) |  | inactive: -8.8%
64 | CN1/C(=C\C(=O)CSc2nnc(NCc3ccccc3)s2)C(C)(C)c2ccccc21 | inconclusive: 10 µM [inhibitor, partial curve] | 
65 | O=c1oc2ccccc2cc1-c1csc(NN=C2CCCCC2)n1 | inconclusive: 25.1 µM [inhibitor, partial curve] | 
66 | c1ccc(-c2nc(N3CCN(c4ccccc4)CC3)nc(-n3ccnc3)n2)cc1 | inconclusive: 7.94 µM [inhibitor, single point] | 

— PubChem BioAssay AID1460 (National Center for Advancing Translational Sciences (NCATS), 2008)
